Molecular target: the molecule itself
Assay: dynamic light scattering; 43 µM PrLD-less TDP-43 in 20 mM Tris-HCl, pH 8.0, 300 mM NaCl, 5 mM DTT, 25 °C; apparent hydrodynamic diameter compared with values expected for monomer, dimer and higher-order oligomers

B1: PrLD-less TDP-43 (TAR DNA-binding protein 43, […], devoid of the prion-like domain) (domain or fragment)
chain: not shown
notes: stop codon introduced at residue 261; Unlabelled in SEC and DLS; also called PrLD-less protein; source: E. coli C41(DE3), purified (Ni-NTA, DEAE anion exchange, SEC)
  stoichiometry N: 2

Source: article PMC11245819, “Biophysical characterization of the phase separation of TDP-43 devoid of the C-terminal domain” (Cellular & Molecular Biology Letters, 2024)
